# Results: paper PMC4336329 (PLoS ONE, 2015)
# In all, about 310,000 compounds went through this assay and about 14,000 (4.5%) showed an effect of 50% or more. The effect is printed as a negative number. The list shows a part of the results.
# Target: human ether-à-go-go-related gene (hERG) potassium channel (human, UniProt Q12809)
# Assay: primary screen, population patch clamp on CHO cells stably expressing hERG
# 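Further: peak tail current of the secondary pulse compared with the same well before compound.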
# Chain of human ether-à-go-go-related gene (hERG) potassium channel (Q12809 whole entry, looked up): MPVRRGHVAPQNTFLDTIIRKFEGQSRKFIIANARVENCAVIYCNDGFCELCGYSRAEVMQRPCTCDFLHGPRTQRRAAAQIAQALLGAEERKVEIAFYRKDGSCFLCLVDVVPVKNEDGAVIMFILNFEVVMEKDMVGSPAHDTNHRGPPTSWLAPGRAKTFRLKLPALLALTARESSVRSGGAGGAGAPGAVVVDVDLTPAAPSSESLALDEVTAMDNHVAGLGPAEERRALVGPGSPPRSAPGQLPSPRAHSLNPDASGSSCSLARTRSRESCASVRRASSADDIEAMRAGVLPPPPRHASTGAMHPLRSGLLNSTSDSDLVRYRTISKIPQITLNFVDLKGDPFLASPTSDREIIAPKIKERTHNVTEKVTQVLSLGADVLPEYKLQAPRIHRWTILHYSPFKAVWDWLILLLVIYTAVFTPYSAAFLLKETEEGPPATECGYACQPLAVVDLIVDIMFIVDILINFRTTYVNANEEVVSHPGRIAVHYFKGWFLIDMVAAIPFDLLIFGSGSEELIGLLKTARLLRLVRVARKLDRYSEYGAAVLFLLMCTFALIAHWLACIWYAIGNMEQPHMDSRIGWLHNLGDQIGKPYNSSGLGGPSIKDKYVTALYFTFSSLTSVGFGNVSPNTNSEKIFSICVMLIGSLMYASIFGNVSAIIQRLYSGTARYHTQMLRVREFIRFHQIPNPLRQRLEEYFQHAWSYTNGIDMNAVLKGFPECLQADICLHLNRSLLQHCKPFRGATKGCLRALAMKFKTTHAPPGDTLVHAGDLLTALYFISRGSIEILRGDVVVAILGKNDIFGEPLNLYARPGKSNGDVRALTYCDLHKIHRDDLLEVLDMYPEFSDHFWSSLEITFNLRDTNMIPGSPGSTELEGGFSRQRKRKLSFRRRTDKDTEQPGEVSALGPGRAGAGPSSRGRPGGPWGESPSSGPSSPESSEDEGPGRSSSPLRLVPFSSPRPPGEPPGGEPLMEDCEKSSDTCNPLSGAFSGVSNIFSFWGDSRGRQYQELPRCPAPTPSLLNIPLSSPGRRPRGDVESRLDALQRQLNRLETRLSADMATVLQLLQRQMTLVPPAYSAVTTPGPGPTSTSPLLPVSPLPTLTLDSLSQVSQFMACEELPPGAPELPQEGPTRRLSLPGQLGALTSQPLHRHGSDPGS
row,SMILES,"hERG current change (%, negative = inhibition) at 10uM"
1,COc1cc(OC)cc(-c2nnc(SCC(=O)N(C(C)C)C(C)C)o2)c1,-13%
2,O=C(Nc1ccccn1)c1ccc(C(=O)c2ccccc2)cc1,-16.1%
3,COc1ccc(/C=N/NC(=O)c2ccc(F)cc2)cc1CN1CCc2cc(OC)c(OC)cc2C1C (centres unmarked),-88.3%
4,COc1ccc2c(c1)c(CC(=O)OC(C)C(=O)N(C)C)c(C)n2C(=O)c1ccc(Cl)cc1 (centres unmarked),-25.7%
5,Nn1c(SCC(=O)Nc2ccc3c(c2)OCO3)nncc1=O,10.5%
6,CCOC(=O)Cc1c(C)nc2cc(-c3ccc(C(C)(C)C)cc3)[nH]n2c1=O,-7.42%
7,CC(C)Oc1cccc(C(=O)O)c1,4.98%
8,Cc1c(C)c2ccc(OCC(=O)N(C)C3CCS(=O)(=O)C3)c(C)c2oc1=O (centres unmarked),9.53%
9,CCCCN1CCC(C#N)(Nc2ccccc2)CC1,9.73%
10,Cc1cc(NC(=O)CCCn2nc([N+](=O)[O-])c(Br)c2C)no1,-5.48%
11,CCOc1ccc(NC(=S)NC(=O)/C=C/c2ccc(OC)cc2)c([N+](=O)[O-])c1,7.26%
12,CCN(C(=O)COC(=O)/C=C/c1c(C)nn(-c2ccccc2)c1C)C1CCS(=O)(=O)C1 (centres unmarked),-5.58%
13,COc1cccc(-c2nc(=S)c3c(n2Cc2ccco2)CCCC3)c1,1.65%
14,NCCCS(=O)(=O)O,12.6%
15,Cc1cc(N2CCOCC2)nc2ccc(NC(=O)CCC(=O)N3CCN(c4ccccc4F)CC3)cc12,-18.6%
16,CCn1c(O)c(/C=N/NC(=O)c2ccncc2)c(=O)[nH]c1=S,28.4%
17,COc1cccc(NC(=O)c2cnc(SCC(=O)NCc3ccc4c(c3)OCO4)n(C)c2=O)c1,-15.1%
18,CC1=NNC(=O)/C1=C\c1cn(-c2ccccc2)nc1-c1ccc(Cl)cc1,3.69%
19,CC1=NN(c2ccccc2)C(=O)C1/C=C1\C(=O)NC(=O)N(c2cc(C)cc(C)c2)C1=O (centres unmarked),6.47%

row,SMILES,"hERG current change (%, negative = inhibition) at 10uM"
1,Cc1cc(C)cc(CC2CC(=O)N(c3cc(C)on3)C2=O)c1 (centres unmarked),0.808%
2,CCOc1nc(Nc2ccc(OC)cc2OC)nc(OCC)n1,4.49%
3,CC(C)OC(=O)CSc1nnc(-c2ccccn2)n1C,12.8%
4,COc1cccc(NC(=O)CCNS(=O)(=O)c2ccc3c(c2)oc(=O)n3C)c1,3.22%
5,O=C(CSc1ccc(-c2cccnc2)nn1)N1CCCCC1,4.55%
6,Cn1nc(-c2ccccc2)nc1-c1ccccc1,-7.95%
7,Cc1ccc(NS(=O)(=O)c2ccccc2[N+](=O)[O-])cc1C,11.8%
8,Oc1c(C=Nc2cccnc2)sc2ccccc12,0.807%
9,O=C(Cn1cc(S(=O)(=O)Cc2ccc([N+](=O)[O-])cc2)c2ccccc21)N1CCOCC1,-12.5%
10,COc1ccc(/C=N/Nc2nc(-c3cccnc3)nc3ccccc23)cc1OC,-22.2%
11,CCOC(=O)N1CCN(C(=O)c2ccc3nc(N4CCCCC4)sc3c2)CC1,-15.7%
12,O=C(Cc1cccs1)NNC(=O)c1ccccc1Cl,-3.89%
13,O=C(NCc1ccc2c(c1)OCO2)C12CC3CC(CC(C3)C1)C2,-20.7%
14,CS(=O)(=O)N(CC(=O)Nc1ccc(CC#N)cc1)c1ccc(C23CC4CC(CC(C4)C2)C3)cc1,-0.0575%
15,Cc1ccc(N2CC(C(=O)Nc3nnc(SCCN4CCOCC4)s3)CC2=O)cc1C (centres unmarked),20.7%
16,CN(C)Cc1nc2ccccc2c(=O)n1Cc1nc(-c2cccc([N+](=O)[O-])c2)cs1,-36.9%
17,CN(C)CCCNC(=O)N1c2ccccc2Sc2ccccc21,1.39%
18,Nc1nc(F)nc2c1ncn2[C@@H]1O[C@H](CO)[C@@H](O)[C@H]1O,19%
19,CCOc1cc(C2C(C(=O)c3ccco3)=C(O)C(=O)N2CCc2ccccc2)ccc1O (centres unmarked),2.76%

row,SMILES,"hERG current change (%, negative = inhibition) at 10uM"
1,CC(/C=N/N1CCN(c2ccc(C)cc2)CC1)=C\c1ccccc1,12%
2,CCOC(=O)NN1C(=O)c2ccccc2NC1c1ccc(N(C)C)cc1 (centres unmarked),-5.09%
3,Cc1ccc(S(=O)(=O)ON2C(=O)c3ccccc3C2=O)c(C)c1,-7.42%
4,COc1ccc(Cc2nc3ccccc3n2CC(=O)N/N=C/c2ccc(O)cc2)cc1OC,0.975%
5,O=C(CCCc1nc(-c2ccccc2Cl)no1)N1CCOCC1,5.68%
6,COc1ccc(CCC(=O)NCCOc2ccc(Cl)cc2)cc1,-7.98%
7,O=C(NCc1ccccc1Cl)c1cnn2cccnc12,-3.22%
8,CC1CC(C)CN(CCCNS(=O)(=O)c2ccc3c(c2)oc(=O)n3C)C1 (centres unmarked),-3.19%
9,COC(=O)C1C(=O)C2=C(CC1C)NC(=O)CC2c1cccc(C)c1 (centres unmarked),-12.6%
10,COc1ccc(C(C(=O)NCc2ccccc2)N(Cc2cccs2)C(=O)c2cnccn2)cc1 (centres unmarked),-12.2%
11,Cc1cc(OCC(=O)NN2C(=O)c3ccccc3C2=O)ccc1Cl,7.86%
12,CCc1noc(C)c1C(=O)N1CCN(S(=O)(=O)c2cc(C)ccc2C)CC1,-1.66%
13,Cn1cc(Br)c(-c2cccc(NC(=O)CC(C)(C)CC(=O)O)c2)n1,11.8%
14,O=C(NCc1ccc(F)cc1)Nc1ccc(Cl)cc1,15.1%
15,S=C(NCCc1c[nH]c2ccccc12)NC1CCCC1,9.06%
16,Cc1cc(C)c(Cn2c(C(=O)O)c(C=O)c3ccccc32)c(C)c1,1.4%
17,Cc1cccc(-c2nc3ccccc3c(=O)n2NC(=S)N(C)C)c1,-7.76%
18,COc1cc(SC)ccc1C(=O)N1CCN(c2ccc(O)cc2)CC1,-34.2%
